{
  "source": "the supplement of paper PMC10126150",
  "note": "Values marked as one replicate rest on one cluster of the flow cell; about a third of the high ones do not repeat.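 Note: ATP exposure 15 min at 22 °C before imaging.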",
  "data": [
    {"tested_on": "ATP", "test": "switch fluorescence ratio, 500 uM ATP over buffer (Cy3 cluster intensity, sum of 5 cycles each) (fold (ratio)); higher = stronger signal-on switching upon ATP binding; sequences stand for … in TCGTCGGCAGCGTCAGATGTGTATAAGAGACAGTTTTTTTTTTTTTTTTTTTTTTTTT…TC", "conditions": "aptamer strand: ATP DNA aptamer (quencher-CACCTGGGGGAGTATTGCGGAGGAAGG + anchor), 100 nM annealed; ATP concentration: 500 uM; one replicate", "method_in_brief": "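Between each of five buffer/ATP cycles, the flow-cell was stripped with NaOH and re-annealed. Each cycle imaged Cy3-labelled switching-strand clusters, annealed to 100 nM quencher-labelled ATP aptamer on a modified Illumina MiSeq flow-cell, first in selection buffer and then after 15 min with 500 uM ATP at 22 °C. The fluorescence ratio is summed target-cycle over summed buffer-cycle Cy3 intensity per cluster, averaged per switch-domain sequence, with clusters outside 100-1000 RFU excluded.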", "values": [
      {"sequence": "CAATAGTAAT", "switch fluorescence ratio": 1.05},
      {"sequence": "CATCTATTTC", "switch fluorescence ratio": 1.07},
      {"sequence": "GCTCACAAAC", "switch fluorescence ratio": 1.42},
      {"sequence": "GGGTAAGTGG", "switch fluorescence ratio": 1},
      {"sequence": "CGTCGGGAGG", "switch fluorescence ratio": 1.01},
      {"sequence": "ACGTTTTTCG", "switch fluorescence ratio": 0.989},
      {"sequence": "GTTACCTACA", "switch fluorescence ratio": 1.23},
      {"sequence": "CATCGGCGGG", "switch fluorescence ratio": 1.04},
      {"sequence": "AAAACCGGTA", "switch fluorescence ratio": 1.06},
      {"sequence": "ATGGAAGTAT", "switch fluorescence ratio": 1.04},
      {"sequence": "TGATAGGCTG", "switch fluorescence ratio": 1.06},
      {"sequence": "AATTAGGTTC", "switch fluorescence ratio": 0.991},
      {"sequence": "TTCATCGCTT", "switch fluorescence ratio": 1.09},
      {"sequence": "CTTAAAGGTG", "switch fluorescence ratio": 1.28},
      {"sequence": "CAAGGCGCGC", "switch fluorescence ratio": 0.979},
      {"sequence": "GACCTGTCGT", "switch fluorescence ratio": 0.97},
      {"sequence": "TTCGGATACC", "switch fluorescence ratio": 0.997},
      {"sequence": "CCATTTGAAA", "switch fluorescence ratio": 1.01},
      {"sequence": "GCTCTTGTGT", "switch fluorescence ratio": 1},
      {"sequence": "TTATACATAT", "switch fluorescence ratio": 1.06},
      {"sequence": "CAGATGAGTA", "switch fluorescence ratio": 1.04},
      {"sequence": "ATAAGGAATC", "switch fluorescence ratio": 1.01},
      {"sequence": "GGATTCGCGA", "switch fluorescence ratio": 0.963},
      {"sequence": "GCAGCCGTTT", "switch fluorescence ratio": 1.03},
      {"sequence": "AAGTGTGGTC", "switch fluorescence ratio": 1.02},
      {"sequence": "CTCGCTGGGC", "switch fluorescence ratio": 1.43},
      {"sequence": "GTCTATCCTA", "switch fluorescence ratio": 0.986},
      {"sequence": "TACGATTGAT", "switch fluorescence ratio": 1},
      {"sequence": "TCGTTCTGTA", "switch fluorescence ratio": 0.984},
      {"sequence": "GTGGTAGCGT", "switch fluorescence ratio": 0.992},
      {"sequence": "AGCAGAGAAG", "switch fluorescence ratio": 0.952},
      {"sequence": "ACGTTCAGTC", "switch fluorescence ratio": 1.04},
      {"sequence": "GCTGGCGCT", "switch fluorescence ratio": 0.962},
      {"sequence": "TAGTAATCAG", "switch fluorescence ratio": 0.995},
      {"sequence": "CGGACCGAAC", "switch fluorescence ratio": 1.01},
      {"sequence": "AGGACTGGAT", "switch fluorescence ratio": 0.97},
      {"sequence": "ACGCCCAAAG", "switch fluorescence ratio": 1.17},
      {"sequence": "GCTGGAGAAT", "switch fluorescence ratio": 0.965},
      {"sequence": "GCCGCAACCG", "switch fluorescence ratio": 1.84},
      {"sequence": "TATTATATAA", "switch fluorescence ratio": 1.02},
      {"sequence": "TTCTCGGGCC", "switch fluorescence ratio": 0.995},
      {"sequence": "TGACTTCTTG", "switch fluorescence ratio": 1.01},
      {"sequence": "GCCCTCGTAC", "switch fluorescence ratio": 1.14},
      {"sequence": "GCTCTCAAGT", "switch fluorescence ratio": 1.02},
      {"sequence": "CAACCGAGGT", "switch fluorescence ratio": 1.05},
      {"sequence": "ATGGCTCCAT", "switch fluorescence ratio": 0.975},
      {"sequence": "CCTGCCCGAA", "switch fluorescence ratio": 1.29},
      {"sequence": "TCCTTGGTAA", "switch fluorescence ratio": 1.03},
      {"sequence": "GACCTTACCG", "switch fluorescence ratio": 1.54},
      {"sequence": "CCGAACCATG", "switch fluorescence ratio": 1.36},
      {"sequence": "TTTTCGATGA", "switch fluorescence ratio": 0.985},
      {"sequence": "GGTCTTAAAA", "switch fluorescence ratio": 1.02},
      {"sequence": "GATGAAAAG", "switch fluorescence ratio": 1.02},
      {"sequence": "TTTCTTTGAG", "switch fluorescence ratio": 1.01},
      {"sequence": "TTTTCGTCGC", "switch fluorescence ratio": 1.01},
      {"sequence": "AGGCCCTAGA", "switch fluorescence ratio": 0.953},
      {"sequence": "TGCCGAAGAC", "switch fluorescence ratio": 1.31},
      {"sequence": "ATTCGGGGTA", "switch fluorescence ratio": 0.962},
      {"sequence": "AACGCTTGAG", "switch fluorescence ratio": 0.995},
      {"sequence": "AGCAGGAACT", "switch fluorescence ratio": 1.02},
      {"sequence": "CCCCTCGCAG", "switch fluorescence ratio": 3.34},
      {"sequence": "ACAGAGCAGA", "switch fluorescence ratio": 1.18},
      {"sequence": "CCGGTATTAG", "switch fluorescence ratio": 1.21},
      {"sequence": "GTCACGAGCG", "switch fluorescence ratio": 1.05},
      {"sequence": "TAATCTGGCC", "switch fluorescence ratio": 0.912},
      {"sequence": "TCCGTGTAGT", "switch fluorescence ratio": 1.03},
      {"sequence": "ATGAGCGGG", "switch fluorescence ratio": 1.03},
      {"sequence": "GTTTCCAAA", "switch fluorescence ratio": 1},
      {"sequence": "GGCGGACGAG", "switch fluorescence ratio": 0.982},
      {"sequence": "CGCTAGGATC", "switch fluorescence ratio": 1.03},
      {"sequence": "AGTTCGGGC", "switch fluorescence ratio": 0.975},
      {"sequence": "AGCGTTTTGG", "switch fluorescence ratio": 0.964},
      {"sequence": "ACCGGCGGAA", "switch fluorescence ratio": 1.09},
      {"sequence": "AATCTGTCAA", "switch fluorescence ratio": 1.15},
      {"sequence": "TTACGCCGGT", "switch fluorescence ratio": 1.02},
      {"sequence": "TCAGCCAGCT", "switch fluorescence ratio": 1.01},
      {"sequence": "GTCCGGTGGT", "switch fluorescence ratio": 0.976},
      {"sequence": "ATTTGTCGGA", "switch fluorescence ratio": 1},
      {"sequence": "ACACGAATGA", "switch fluorescence ratio": 1.04},
      {"sequence": "ACCCATGTCG", "switch fluorescence ratio": 1.1},
      {"sequence": "CAATTTTCAG", "switch fluorescence ratio": 1.02},
      {"sequence": "TGGTCGCCTG", "switch fluorescence ratio": 0.978},
      {"sequence": "ATATCTGTTT", "switch fluorescence ratio": 1},
      {"sequence": "TATAGTAAGG", "switch fluorescence ratio": 0.986},
      {"sequence": "CACGGATTAG", "switch fluorescence ratio": 1.02}
    ]}
  ]
}
